Results taken from PubChem BioAssay AID1477 (National Center for Advancing Translational Sciences (NCATS), 2009).
In all, about 230,000 compounds went through this assay and fewer than 10 were called active. Inconclusive means that the source gave no clear call. Such entries were picked first, then a sample of the others. Calls follow the shape of the dose curve; as a rule, active = well fitted curve in the direction sought with a large enough effect; inconclusive = small, poorly fitted or top-dose-only effect, or effect the other way, or another doubt; inactive = no such curve, though single readings can be large or run the other way. No potency is given beside an inconclusive call; the fits are too rough.

target: Runt-related transcription factor 1 (Homo sapiens) + Core-binding factor subunit beta (Homo sapiens) (UniProt Q01196+Q13951); test: qHTS Assay for Compounds Blocking the Interaction Between CBF-beta and RUNX1 for the Treatment of Acute Myeloid Leukemia; conditions: AlphaScreen CBFb-His/RUNX1-biotin binding, biochemical; activity, negative = inhibition: at 59.8 µM (top of the series) unless noted; as to activity, negative = inhibition: % of control where 0% means no effect
In short: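 Interaction loss through any mechanism counts as activity. Pre-formed complex of His-CBF-beta and biotin-RUNX1 (30 nM apiece) is incubated with compound 15 min, then with 50 ng nickel and 50 ng streptavidin beads for 90 min before AlphaScreen detection.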

UniProt Q01196, sequence (Q01196 whole entry, looked up): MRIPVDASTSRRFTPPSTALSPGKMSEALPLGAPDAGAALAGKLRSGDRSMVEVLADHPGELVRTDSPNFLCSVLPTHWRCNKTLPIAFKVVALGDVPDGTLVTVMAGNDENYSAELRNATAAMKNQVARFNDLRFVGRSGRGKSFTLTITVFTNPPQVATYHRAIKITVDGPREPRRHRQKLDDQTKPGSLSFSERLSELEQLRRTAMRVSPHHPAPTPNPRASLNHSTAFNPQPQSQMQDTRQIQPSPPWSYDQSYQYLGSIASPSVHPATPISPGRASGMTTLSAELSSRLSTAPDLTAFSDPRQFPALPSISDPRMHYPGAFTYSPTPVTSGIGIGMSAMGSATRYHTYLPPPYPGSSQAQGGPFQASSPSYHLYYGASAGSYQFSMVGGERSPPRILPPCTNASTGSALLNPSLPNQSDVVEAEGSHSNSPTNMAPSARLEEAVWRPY
UniProt Q01196, sequence (Q13951 whole entry, looked up): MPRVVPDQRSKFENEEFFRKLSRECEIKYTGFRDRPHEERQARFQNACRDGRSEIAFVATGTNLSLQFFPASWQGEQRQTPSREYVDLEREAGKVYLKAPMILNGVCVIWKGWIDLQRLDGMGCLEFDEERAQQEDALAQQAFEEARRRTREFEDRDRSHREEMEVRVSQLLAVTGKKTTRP

Q: For O=C(Nc1ccc(-c2cn3ccccc3n2)cc1)c1cccs1, which Potency is on record?
A: The Potency was inconclusive [activator, single point].

Q: For Cc1ccc(C)c(-n2c(Cc3cccs3)n[nH]c2=S)c1, which “activity, negative = inhibition” value is on record?
A: Its value is inactive: 2.63%.

Q: How did the activity, negative = inhibition turn out when O=C1C2=CC[C@@H]3C(=O)N(c4ccc(F)cc4F)C(=O)[C@H]3[C@H]2[C@H](O)[C@H]2O[C@H]12 was run?
A: Its activity, negative = inhibition is inactive: -17.1% [at 13.1 µM].

Q: O=C(Nc1cccc(Cl)c1)c1csc(-c2ccccc2)n1 was tested. Which Potency did it give?
A: Its Potency is inconclusive [activator, single point].

Q: With c1ccc(-n2c(Cc3cn4ccsc4n3)nnc2N2CCOCC2)cc1 as the molecule, how does the Potency read?
A: Its Potency is inconclusive [inhibitor, single point].

Q: For COC(=O)N1[C@H](Cc2ccccc2)C=C[C@]1(C)C(=O)NCc1ccc(N(C)C)cc1, which “activity, negative = inhibition” value is on record?
A: Its value is inactive: -13.3%.

Q: CCN(CC)C(=O)N[C@@H]1C=C2c3cccc4[nH]cc(c34)C[C@H]2N(C)C1 was tested. Which Potency did it give?
A: The Potency was inconclusive [inhibitor, full curve, poor fit].

Q: Which Potency does the source give for Cc1ccnc2nc(C(=O)Nc3ccc(S(=O)(=O)N4CCCC4)cc3)nn12 here?
A: The Potency was inconclusive [inhibitor, single point].

Q: CC(C)C[C@H](NC(=O)[C@H](Cc1cnc[nH]1)NC(=O)[C@@H](N)Cc1cnc[nH]1)C(=O)NCC(=O)NCC(=O)N[C@@H](C)C(=O)N[C@@H](CCCCN)C(=O)N[C@@H](CCC(N)=O)C(=O)N[C@@H](C)C(=O)NCC(=O)N[C@@H](CC(=O)O)C(=O)N[C@H](C(=O)O)C(C)C was tested. Which “activity, negative = inhibition” value did it give?
A: Its value is inactive: 2.52%.

Q: For Cc1ncc(CO)c(/C=N/NC(=O)c2ccccc2Br)c1O, which Potency is on record?
A: The Potency was inconclusive [inhibitor, single point].

Q: Cc1ccc(NS(=O)(=O)c2cc(C(=O)N3CCc4ccccc4C3)ccc2Cl)cc1 was tested. Which “activity, negative = inhibition” value did it give?
A: Its value is inactive: 2.05%.

Q: Which Potency does the source give for COc1cccc(C(=O)Nc2ccc(N3CCCC3)cc2)c1 here?
A: Its Potency is inconclusive [inhibitor, partial curve].

Q: COc1ccc(C(=O)/C=C/c2ccc(OC3CSC3)cc2)cc1OC was tested. Which “activity, negative = inhibition” value did it give?
A: Its value is inactive: -3.46%.

Q: Cc1cc2nc(-c3ccc4c(c3)CCC4)ccn2n1 was tested. Which Potency did it give?
A: The Potency was inconclusive [activator, partial curve, poor fit].

Q: Cc1cccc(C)c1Nc1oc(-c2ccccc2)nc1-c1ccccc1 was tested. Which Potency did it give?
A: The Potency was inconclusive [activator, full curve, poor fit].

Q: How did the Potency turn out when COc1ccc(Nc2ncnc3sc(-c4ccccc4)cc23)c(OC)c1 was run?
A: The Potency was inconclusive [activator, single point].

Q: How did the Potency turn out when CC1=Nc2ccccc2/C1=C/c1sc(=S)n(-c2cccc(C(=O)O)c2)c1O was run?
A: The Potency was inconclusive [inhibitor, single point].

Q: With Fc1cccc(COc2ccccc2CNc2ccccc2)c1 as the molecule, how does the Potency read?
A: Its Potency is inconclusive [activator, single point].

Q: Which Potency does the source give for c1ccc(Oc2ncnc3sccc23)cc1 here?
A: Its Potency is inconclusive [activator, full curve, poor fit].

Q: How did the “activity, negative = inhibition” value turn out when CCn1ccnc1[C@@H]1C[C@H]2CN(Cc3ccccc3OC)C(=O)[C@]23CCCN13 was run?
A: The value was inactive: -2.64%.

Q: O=C1OC(OC(=O)c2cccnc2Nc2cccc(C(F)(F)F)c2)c2ccccc21 (stereo not drawn) was tested. Which Potency did it give?
A: The Potency was inconclusive [activator, single point].

Q: Which Potency does the source give for C/C(=N\Nc1ccc(Cl)c(C(=O)O)c1)c1ccc[nH]1 here?
A: The Potency was inconclusive [inhibitor, single point].

Q: With CN1/C(=C/C=N/NC(=O)c2ccc([N+](=O)[O-])cc2)C(C)(C)c2ccccc21 as the molecule, how does the Potency read?
A: Its Potency is inconclusive [inhibitor, partial curve].

Q: For Cc1cc(N2C(=O)C(O)=C(C(=O)c3ccco3)C2c2ccc(O)cc2)no1 (stereo not drawn), which “activity, negative = inhibition” value is on record?
A: The value was inactive: -4.53%.

Q: How did the “activity, negative = inhibition” value turn out when OC(COc1ccc2cc(Br)ccc2c1)CN1CCCC1 (stereo not drawn) was run?
A: The value was inactive: 10%.

Q: c1ccc(-c2noc(-c3cccc4ccccc34)n2)cc1 was tested. Which Potency did it give?
A: Its Potency is inconclusive [activator, single point].

Q: How did the Potency turn out when Cc1cc(C)cc(NC(=O)CSc2ccccc2)c1 was run?
A: Its Potency is inconclusive [activator, single point].

Q: CCC1(C)OCC(Cn2c3ccccc3c3ccccc32)O1 (stereo not drawn) was tested. Which Potency did it give?
A: Its Potency is inconclusive [activator, partial curve, poor fit].

Q: Which Potency does the source give for COc1ccc(/C(C)=N/Nc2ccc(F)cc2F)c(O)c1 here?
A: Its Potency is inconclusive [activator, single point].

Q: With CN1CCN(C(=S)c2ccc(-c3cccc(Cl)c3Cl)o2)CC1 as the molecule, how does the Potency read?
A: The Potency was inconclusive [inhibitor, partial curve].

Q: O=C(/C=C/c1ccccc1)NCCc1ccccc1 was tested. Which Potency did it give?
A: The Potency was inconclusive [inhibitor, single point].

Q: For COc1ccc(/C=C(/NC(=O)c2cccs2)C(=O)N2CCOCC2)cc1OC, which Potency is on record?
A: Its Potency is inconclusive [inhibitor, partial curve].

Q: Which “activity, negative = inhibition” value does the source give for CCc1ccc(Nc2ncccc2C#N)cc1 here?
A: The value was inactive: 8.81%.

Q: CN(C)c1ccc(N2CN=C3SCC(=O)N3C2)cc1 was tested. Which Potency did it give?
A: Its Potency is inconclusive [inhibitor, partial curve].

Q: Which Potency does the source give for O=C(CSc1ccc(-c2ccccn2)nn1)N1CCCC1 here?
A: Its Potency is inconclusive [inhibitor, partial curve].

Q: How did the Potency turn out when CCN1c2ccccc2-c2nc3ccccc3n2C1c1cccs1 (stereo not drawn) was run?
A: Its Potency is inconclusive [activator, partial curve].

Q: For Cc1ccc(C(=O)NNC(=S)Nc2cccc(Cl)c2Cl)cc1[N+](=O)[O-], which Potency is on record?
A: Its Potency is inconclusive [inhibitor, single point].

Q: With O=C(Cc1ccccc1)Nc1nc(-c2cccs2)cs1 as the molecule, how does the “activity, negative = inhibition” value read?
A: Its value is inactive: 3.5%.

Q: How did the Potency turn out when COC(=O)C1=C(C)N(Cc2ccccc2)C(=O)/C1=C\c1ccco1 was run?
A: Its Potency is inconclusive [inhibitor, partial curve].

Q: Which Potency does the source give for CCC(=O)NC1CCc2cccc(OC)c2C1 (stereo not drawn) here?
A: Its Potency is inconclusive [activator, single point].

Q: How did the Potency turn out when CCOc1ccc(N2C(=O)CS/C2=C(\C(Cl)=C(Cl)Cl)[N+](=O)[O-])cc1 was run?
A: Its Potency is inconclusive [inhibitor, single point].

Q: With CCSC1=N/C(=C\c2ccc(C)s2)C(=O)S1 as the molecule, how does the “activity, negative = inhibition” value read?
A: Its value is inactive: -7%.

Q: O=C(COc1ccc2ccccc2c1Br)NC(=S)Nc1cccc(CO)c1 was tested. Which “activity, negative = inhibition” value did it give?
A: The value was inactive: -1.83%.
